# Test results from US8076286B2, “Antimicrobial peptides and use thereof” (priority 2006, dated 2011).
# Not every detail of the peptide structures is certain; ends, links or a residue may be inferred. Peptide text beside a SMILES is read from it.
# Assays:
# [1] = tested on: S.aureus ATCC 29213; test: Radial diffusion assay (RDA), S. aureus; type: cell-based, Staphylococcus aureus; details: zone of bacterial clearance in RDA; unit mm only in FIG. 1 legend, not in Table 2A
# Method: (§1) Escherichia coli ATCC25922, Pseudomonas aeruginosa ATCC27853, Staphylococcus aureus ATCC29213, Bacillus subtilis ATCC6633 bacterial isolates, and the fungal isolate Candida albicans ATCC90028, were obtained from the Department of Bacteriology, Lund University Hospital.
# (§2) Radial diffusion assays (RDA) were performed essentially as described earlier (Lehrer, R. I., Rosenman, M., Harwig, S. S., Jackson, R. & Eisenhauer, P. (1991) Ultrasensitive assays for endogenous antimicrobial polypeptides, J Immunol Methods. 137, 167-73.).
# (§3) Briefly, bacteria (E. coli, P. aeruginosa, S. aureus, B. subtilis) or fungi (C. albicans) were grown to mid-logarithmic phase in 10 ml of full-strength (3% w/v) trypticase soy broth (TSB) (Becton-Dickinson, Cockeysville, Md.). The microorganisms were washed once with 10 mM Tris, pH 7.4. 4×10^6 bacterial cfu or 1×10^5 fungal cfu was added to 5 ml of the underlay agarose gel, consisting of 0.03% (w/v) TSB, 1% (w/v) low-electroendoosmosistype (Low-EEO) agarose (Sigma, St Louise Mo.) and a final concentration of 0.02% (v/v) Tween 20 (Sigma). The underlay was poured into a Ø85 mm petri dish. After agarose solidified, 4 mm-diameter wells were punched and 6 μl of test sample was added to each well. Plates were incubated at 37° C. for 3 hours to allow diffusion of the peptides. The underlay gel was then covered with 5 ml of molten overlay (6% TSB and 1% Low-EEO agarose in dH2O). Antimicrobial activity of a peptide is visualized as a clear zone around each well after 18-24 hours of incubation at 37° C. for bacteria and 28° C. for Candida albicans.
# [2] = CD-spectroscopy, helical content; type: physicochemical; details: 10 mM Tris, pH 7.4, 37° C., peptide 10 μM
# Method: The CD spectra of the peptides in solution were measured on a Jasco J-810 Spectropolarimeter (Jasco, U.K.). The measurements were performed at 37° C. in a 10 mm quartz cuvet under stirring and the peptide concentration was 10 μM. The effect of on peptide secondary structure of liposomes at a lipid concentration of 100 μM was monitored in the range 200-250 nm. The only peptide conformations observed under the conditions investigated were α-helix and random coil. The fraction of the peptide in α-helical conformation, Xα, is calculated from Xα=(A−Ac)/(Aα−Ac) (1)
# where A is the recorded CD signal at 225 nm, and Aα and Ac are the CD signal at 225 nm for a reference peptide in 100% α-helix and 100% random coil conformation, respectively. 100% α-helix and 100% random coil references were obtained from 0.133 mM (monomer concentration) poly-L-lysine in 0.1 M NaOH and 0.1 M HCl, respectively. To account for the instrumental differences between measurements the background value (detected at 250 nm, where no peptide signal is present) was subtracted. Signals from the bulk solution were also corrected for (see Table 4).
# [3] = Liposome leakage assay (carboxyfluorescein), PA liposomes; type: biochemical; details: dioleoylphosphatidylcholine 30/dioleoylphosphatidic acid 30/cholesterol 40 mol % liposomes, unit not in table
# Method: (§4) Dry lipid films were prepared by dissolving either dioleoylphosphatidylcholine (Avanti Polar Lipids, Alabaster, Ala.) (60 mol %) and cholesterol (Sigma, St Louis, Mo.) (40 mol %), or dioleoylphosphatidylcholine (30 mol %), dioleoylphosphatidic acid (Avanti Polar Lipids, Alabaster, Ala.) (30 mol %) and cholesterol (40 mol %) in chloroform, and then removing the solvent by evaporation under vacuum overnight. Subsequently, buffer solution containing 10 mM Tris, pH 7.4, either with or without additional 150 mM NaCl, was added together with 0.1 M carboxyfluorescein (CF) (Sigma, St Louis, Mo.). After hydration, the lipid mixture was subjected to eight freeze-thaw cycles consisting of freezing in liquid nitrogen and heating to 60° C. Unilamellar liposomes with a diameter of about 130 nm (as found with cryo-TEM; results not shown) were generated by multiple extrusions through polycarbonate filters (pore size 100 nm) mounted in a LipoFast miniextruder (Avestin, Ottawa, Canada). Untrapped carboxyfluorescein was then removed by filtration through two subsequent Sephadex G-50 columns with the relevant Tris buffer as eluent. […] Thus, at 100 mM CF is self-quenched, and the recorded fluorescence intensity from liposomes with entrapped CF is low. […] The CF release was determined by monitoring the emitted fluorescence at 520 nm from a liposome dispersion, (10 mM lipid in 10 mM Tris pH 7.4). […]
# [4] = tested on: E.coli ATCC 25922; test: Radial diffusion assay (RDA), E. coli; type: cell-based, Escherichia coli; details: zone of bacterial clearance in RDA; unit mm only in FIG. 1 legend, not in Table 2A
# Method: as §1, §2, §3
# [5] = Liposome leakage assay (carboxyfluorescein), PC liposomes; type: biochemical; details: dioleoylphosphatidylcholine 60 mol %/cholesterol 40 mol % liposomes, scale 100% = Triton X100 release, unit not in table
# Method: as §4
# [6] = 10 mM Tris pH 7.4, with 150 mM NaCl
# [7] = 10 mM Tris pH 7.4, without NaCl
compound,measurement,setting,value
"CC[C@H](C)[C@H](NC(=O)[C@H](Cc1c[nH]c2ccccc12)NC(=O)[C@H](CCCCN)NC(=O)[C@H](CCCCN)NC(=O)[C@H](CC(C)C)NC(=O)[C@H](CCCNC(=N)N)NC(=O)[C@H](Cc1ccccc1)NC(=O)[C@@H](N)C(C)C)C(=O)N[C@@H](CCC(N)=O)C(=O)N[C@@H](CCCCN)C(=O)N[C@H](C(=O)N[C@H](C(=O)N[C@@H](CC(=O)O)C(=O)N[C@@H](CCC(N)=O)C(=O)N[C@@H](Cc1ccccc1)C(=O)NCC(=O)N[C@@H](CCC(=O)O)C(=O)O)[C@@H](C)CC)C(C)C [SEQ ID NO:1, VFRLKKWIQKVIDQFGE] (H-VFRLKKWIQKVIDQFGE-OH)",Bacteria S.aureus ATCC 29213 Mean,[1],6.08 mm
same,"Helical content, PA","[2]; PA liposome dispersion, lipid 100 μM",38 ± 4%
same,"Helical content, PC","[2]; PC liposome dispersion, lipid 100 μM",11 ± 2%
same,"Helical content, Buffer",[2]; buffer only,10 ± 2%
same,CF leakage PA + NaCl,[3]; [6],19 ± 6%
same,CF leakage PA − NaCl,[3]; [7],109 ± 7%
same,Bacteria E.coli ATCC 25922 Mean,[4],9.76 mm
same,CF leakage PC + NaCl,[5]; [6],18 ± 2%
same,CF leakage PC − NaCl,[5]; [7],96 ± 3%
